# From publication PMC4336329 (PLoS ONE, 2015)
# Screen size: about 310,000 compounds; about 2,200 (0.71%) showed an effect of 50% or more. Effects have a minus sign here. The list shows a part of the results.
# Target: human ether-à-go-go-related gene (hERG) potassium channel (human, UniProt Q12809)
# Experiment: primary screen, population patch clamp on CHO cells stably expressing hERG
# Sequence of human ether-à-go-go-related gene (hERG) potassium channel (Q12809 whole entry, looked up): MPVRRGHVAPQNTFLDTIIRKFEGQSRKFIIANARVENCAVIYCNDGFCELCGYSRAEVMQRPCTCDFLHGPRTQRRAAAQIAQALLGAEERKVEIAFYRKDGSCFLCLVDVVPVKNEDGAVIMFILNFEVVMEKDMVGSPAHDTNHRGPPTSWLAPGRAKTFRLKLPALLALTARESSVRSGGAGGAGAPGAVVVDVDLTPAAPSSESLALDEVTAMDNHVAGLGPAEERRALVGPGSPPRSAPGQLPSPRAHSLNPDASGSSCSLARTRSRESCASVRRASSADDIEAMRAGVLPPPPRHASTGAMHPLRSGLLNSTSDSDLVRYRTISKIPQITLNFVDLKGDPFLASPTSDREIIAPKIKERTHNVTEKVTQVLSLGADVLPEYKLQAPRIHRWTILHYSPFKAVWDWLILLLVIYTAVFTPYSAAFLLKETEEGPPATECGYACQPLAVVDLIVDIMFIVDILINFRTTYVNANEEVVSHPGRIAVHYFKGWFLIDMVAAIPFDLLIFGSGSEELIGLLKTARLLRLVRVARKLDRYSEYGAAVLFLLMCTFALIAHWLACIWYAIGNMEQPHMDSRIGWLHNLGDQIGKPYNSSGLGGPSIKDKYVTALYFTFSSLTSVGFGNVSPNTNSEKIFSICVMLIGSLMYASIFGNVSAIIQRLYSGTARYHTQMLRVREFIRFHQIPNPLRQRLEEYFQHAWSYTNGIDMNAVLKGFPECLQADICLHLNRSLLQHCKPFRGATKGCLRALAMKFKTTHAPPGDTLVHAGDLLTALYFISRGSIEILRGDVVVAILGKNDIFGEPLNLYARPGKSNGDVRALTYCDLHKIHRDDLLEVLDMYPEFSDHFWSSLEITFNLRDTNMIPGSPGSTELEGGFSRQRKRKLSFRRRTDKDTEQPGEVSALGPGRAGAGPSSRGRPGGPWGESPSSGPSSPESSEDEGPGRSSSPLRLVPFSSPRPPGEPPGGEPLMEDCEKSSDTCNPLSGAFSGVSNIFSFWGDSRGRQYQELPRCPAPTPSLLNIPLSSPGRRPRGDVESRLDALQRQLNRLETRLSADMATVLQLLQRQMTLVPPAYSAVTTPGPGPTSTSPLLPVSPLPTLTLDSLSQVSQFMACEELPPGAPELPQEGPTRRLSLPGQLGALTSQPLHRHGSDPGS
row,SMILES,"hERG current change (%, negative = inhibition) at 1uM"
1,O=Cc1ccc(Oc2cc(-c3ccccc3)nc(-c3ccccc3)n2)cc1,11.8%
2,O=C(NCC1CCCO1)c1cccc(Oc2ccc([N+](=O)[O-])cc2)c1 (centres unmarked),-6.66%
3,Br.Cc1cccc(C2CN(C)CCc3c2cc(O)c(O)c3Cl)c1 (centres unmarked),-20.6%
4,Cc1nnc(SCC(=O)N2CCCC2)n(N)c1=O,8.28%
5,c1ccc(CN2CCCC3(CCCN(Cc4nc(CC5CC5)no4)C3)C2)cc1 (centres unmarked),1.67%
6,CC1=[N+]([O-])C(N2CCOCC2)C(O)(c2ccccc2)C1 (centres unmarked),12.1%
7,O=C(NCc1ccccc1)N[C@@H](Cc1ccccc1)C(=O)O,-7.86%
8,OC(COc1ccc2ccccc2c1)Cn1ccnc1 (centres unmarked),7.23%
9,CCOC(=O)c1ccc(N2C(=O)CC(N3CCC(C(N)=O)(N4CCCCC4)CC3)C2=O)cc1 (centres unmarked),10.3%
10,CCN(C(=O)CN1CCN(c2cccc(C(F)(F)F)c2)CC1)c1c(N)n(Cc2ccccc2)c(=O)[nH]c1=O,-6.82%
11,Cc1cc(C(=O)CN2C(=O)C(=O)N(Cc3ccccc3)C2=O)c(C)n1Cc1ccc(F)cc1,11.9%
12,S=C(c1cn(CCOc2cccc3ccccc23)c2ccccc12)N1CCCC1,-2.23%
13,COc1ccc(NC(C)=O)cc1NC(=O)c1cccc(S(=O)(=O)N2CCc3ccccc32)c1,0.977%
14,COc1ccc2cc(-c3[nH]ncc3CNCCn3nc(C)cc3C)ccc2c1,-1.6%
15,CCCCCCCC(=O)NN1CCOCC1,6.58%
16,CC12CCC(=O)N1C(C(=O)NNC(=O)COc1ccccc1Cl)CS2 (centres unmarked),5.61%
17,Cc1cccc(N(CC(=O)N2CCCC2)S(=O)(=O)c2ccccc2)c1,-13.6%
18,CCc1ccc(NS(=O)(=O)c2cc(OC)ccc2OC)cc1,7.45%
19,Cc1ccc(CCNC(=O)CSCc2ccc(F)cc2)cc1,9.78%
20,CN1CCN(c2ccc(NC(=O)c3ccc(-c4cccc([N+](=O)[O-])c4)o3)cc2)CC1,4.68%
21,CC(=O)CSc1ncnc2c1cnn2-c1ccccc1,17.3%
22,O=C(c1ccc(F)cc1)C1CCN(C(=S)Nc2ccc(F)cc2)CC1,3.68%
23,CCn1c(SCC(=O)O)nnc1-c1ccccc1,12%

row,SMILES,"hERG current change (%, negative = inhibition) at 1uM"
1,Cc1ccc(Nc2nc(N)nc(CSc3nc(C)cc(C)n3)n2)cc1,8.5%
2,Cc1ccc2c(c1)NC(C(C)(C)C)CO2 (centres unmarked),5.94%
3,CC1(c2ccc(OC(F)F)cc2)NC(=O)N(CC(=O)Nc2ccc(OC(F)F)cc2)C1=O (centres unmarked),-100%
4,Cc1cc(C)c(C(=O)N(CCN(C)C)CC2CCCN(Cc3ccccc3F)C2)o1 (centres unmarked),-3.53%
5,CCC(C)(C)n1nnnc1C(C(C)C)N(Cc1cccnc1)Cc1ccco1 (centres unmarked),16.2%
6,Cc1ccc(S(=O)(=O)NCC(=O)N/N=C/c2ccccc2O)cc1,12%
7,Cc1ccc(N(Cc2ccc([N+](=O)[O-])cc2)C(=O)c2ccco2)cc1,12.5%
8,C/C(=N\NC(=O)CCC(=O)Nc1ccccc1)c1cccs1,17%
9,Cc1sc(NC(=O)CSc2nnc3scc(-c4ccccc4)n23)c(C#N)c1C,17.6%
10,Cc1cccc(C)c1NC(=O)C(c1ccccc1)N1CCN(C(=O)c2ccco2)CC1 (centres unmarked),6.09%
11,O=S(=O)(c1ccccc1)N1CCN2CCCC2C1 (centres unmarked),13.4%
12,O=C(N/N=C/C=C/c1ccccc1)C1CC1(c1ccccc1)c1ccccc1 (centres unmarked),-7.65%
13,CN(C)c1ccc(NC(=O)CN2CCN(CC(=O)Nc3ccc(F)cc3)CC2)cc1,-61.1%
14,O=C(NCc1cccc(Cl)c1)c1ccc2ccccc2n1,6.65%
15,O=C(OCCCc1ccncc1)c1ccc(S(=O)(=O)N2CCOCC2)cc1,12.3%
16,Cc1ccnc(NC(=O)c2ccc(Cl)c(NC(=O)CCc3ccccc3)c2)c1,11.5%
17,Br.O=C(CN1C2=NCCCN2c2ccccc21)c1ccc(Br)s1,-37%
18,COc1ccc(C(=O)COC(=O)CCS(=O)(=O)c2ccc(C)cc2)c(OC)c1,-1.6%
19,O=C(Nc1ccc(C(=O)N2CCOCC2)cc1)c1cnn2c(C(F)F)cc(-c3ccccc3)nc12,6.5%
20,O=C(O)COc1ccc2c3c(c(=O)oc2c1)CCCC3,11.3%
21,CCCCSCc1[nH]c(=O)[nH]c1C(=O)CCCCC(=O)OCC,4.21%
22,CC(C)(C)Nc1nc(Cl)nc(Nc2ccccc2)n1,-1.81%
23,COc1ccc(C2C(C#N)=C(N)N(N(C)C)C3=C2C(=O)CCC3)cc1 (centres unmarked),12.3%

row,SMILES,"hERG current change (%, negative = inhibition) at 1uM"
1,CCc1cccc(NC(=O)C2CCCN2S(=O)(=O)c2ccc3c(c2)n(C)c(=O)c(=O)n3C)c1 (centres unmarked),-0.158%
2,OC1(c2cccc(C(F)(F)F)c2)CCN(CCN2CCCCC2)CC1,16.2%
3,Cc1ccc(-c2ccc3nnc(SCC(N)=O)n3n2)cc1,9.3%
4,CCC(=O)c1ccc(OCC(=O)Nc2nc(-c3cccnc3)cs2)cc1,6.31%
5,Cc1c(OC(C)C(=O)NCC(O)c2ccccc2)ccc2c3c(c(=O)oc12)CCCC3 (centres unmarked),18.9%
6,Cc1cc(OCC(=O)Nc2ccncc2)c(C)cc1Br,11.8%
7,Cc1ccc(C)c(CN2CCCNC2=O)c1,1.83%
8,N#Cc1cc(-c2ccccc2)nnc1Oc1ccccc1,8.8%
9,COCCNC(=O)c1ccc(CSCc2cccc(Cl)c2)o1,5.84%
10,COc1ccc(N(CC(=O)NCc2ccc(Cl)cc2)S(=O)(=O)c2c(C)nn(C)c2C)cc1,5.92%
11,O=C(C(=O)N1CCOCC1)c1cn(CCCOc2ccccc2)c2ccccc12,7.81%
12,CC(C)Nc1nc2ccccc2c(=O)[nH]1,13.5%
13,N#Cc1c(-c2ccccc2)nc(N2CCOCC2)[nH]c1=O,-0.575%
14,CC(=O)Nc1ccc(C(=O)N2CC(=O)NC(=O)C2)cc1,3.53%
15,CC(C)(C)OC(=O)N1CCCN(C(=O)Nc2ccc(OC(F)(F)F)cc2)CC1,7.78%
16,CCOC(=O)c1ccc(N2C(=O)C=C(N3CCOCC3)C2=O)cc1,11.5%
17,CCS(=O)(=O)c1ccc(Sc2nncn2C)c([N+](=O)[O-])c1,1.66%
18,Cc1cc([N+](=O)[O-])c(NC2CCCCC2)c([N+](=O)[O-])c1,8.74%
19,CN(CC(=O)Nc1ccc(Cl)c(C(F)(F)F)c1)C(=O)Cc1cccs1,3.05%
20,Clc1ccc2nc3c4ccccc4cnn3c2c1,9.79%
21,COc1ccc(C)cc1NC(=S)N1CC(C)OC(C)C1 (centres unmarked),0.844%
22,CN(C)CCn1c2c(c(SCC(=O)Nc3cccc4ccccc34)nc1=O)CCC2,10.1%
23,Cc1cc(-c2ccc(F)cc2)nc2cc(C(N)=O)nn12,7.87%

row,SMILES,"hERG current change (%, negative = inhibition) at 1uM"
1,O=C(COc1ccc2ccc(=O)oc2c1)NCc1ccccn1,12.9%
2,COCc1cc(C)nc(SCC(=O)Nc2ccc3[nH]c(=O)[nH]c3c2)c1C#N,11.8%
3,COc1ccc2[nH]c3c(=O)n(/N=C/[C@H]4C(C)C=C(C)CC4C)c(=O)[nH]c3c2c1 (some centres unmarked),13.4%
4,Cc1nc2c(-c3ccccc3)c(C)nn2c(N)c1-c1ccccc1,-0.743%
5,O=C(NC1CCCCCCC1)c1cnccn1,6.27%
6,CCc1ccccc1Nc1nn2c(=O)c3ccc(C(=O)NCc4ccccn4)cc3nc2s1,7.39%
7,Cc1ccc(CN(C(=O)COc2ccc(Br)cc2)C2CCS(=O)(=O)C2)o1 (centres unmarked),-13.4%
8,COc1ccc(C)cc1NC(=O)CCNS(=O)(=O)c1cccc2nonc12,12.9%
9,CC(C)(C)C(=O)Nc1ccccc1C(=O)Nc1cc(Cl)ccc1Cl,2.06%
10,O=C(CNS(=O)(=O)c1ccccc1)NCC(=O)N1CCCCC1,14.8%
11,CCCNC(=O)COC(=O)c1ccccc1C(=O)N(C)C1CCCCC1,12.7%
12,O=C(c1cccc(S(=O)(=O)N2CCCC2)c1)N1CCN(c2ncccn2)CC1,2.76%
13,CCOc1ccc(NC(=O)N(CCN(C)C)C(C)c2cccnc2)cc1 (centres unmarked),12.5%
14,Cc1ccc(S(=O)(=O)C2(C(=O)N3CCCC(C)C3)CC2)cc1 (centres unmarked),2.25%
15,COC(=O)C1=C(c2ccc(F)cc2OCc2ccccc2)C[C@@H]2CC[C@H]1N2C(=O)NCCc1ccc(F)cc1,13.3%
16,C/C(=N/N1CCN(c2ccccn2)CC1)c1ccc([N+](=O)[O-])cc1,-8.58%
17,c1ccc2c(c1)ccc1ncccc12,0.593%
18,Cc1cc(C)c(NC(=O)c2ccc3c(c2)NC(=O)C(C)S3)c(C)c1 (centres unmarked),2.78%
19,CS(=O)(=O)N(CC(=O)Nc1ccccc1C(=O)NCc1ccco1)c1ccccc1F,-1.41%
20,CC(OC(=O)CCC(=O)c1cccs1)C(=O)NC1CCCCC1C (centres unmarked),0.622%
